This passage reports nonsense suppression results from the RNAGym collection of RNA variant scans (doi:10.1101/gad.245936.114).

Variants at the background level are over-represented here.

Sequences and labels used below:
B1: tRNA (parent)
chain: CUCUCGGUAGCCAAGUUGGUUUAAGGCGCAAGACUUUAAUUUAUCACUACGAAAUCUUGAGAUCGGGCGUUCGACUCGCCCCCGGGAGAUUUUUUCCUCGAGCAA

In this series the parent is B1. As to the kind of experiment: nonsense suppression (GFP-seq) (ratio to wild type); higher = more function; SUP4oc tRNA, yeast GFP reporter sort-seq. In short, it runs like this: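 Nonsense suppression (GFPSEQ) is the median GFP/RFP ratio of each sorting bin, weighted by the variant's estimated share of cells in that bin and expressed relative to the unmutated parent tRNA. Yeast strains carried genome-integrated variants of an ochre-suppressor tRNA from a library with ~3% random mutations, plus a galactose-driven GFP ochre reporter and RFP, and were grown in raffinose/galactose medium containing 80 mg/L adenine. Cells were sorted into GFP/RFP bins, each bin was Illumina-sequenced (phred ≥30), and variants were kept only with ≥100 reads and ≥30 cells.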
For the variant U4G G59U C75G, the nonsense suppression was no more than 0.026.
Under G6C C77G G86C stands no more than 0.026; under U55G A87G G88A, no more than 0.026; under A30U G32U C56A U58G, 1.11.
Under C11U A14C U55G C56G U58A stands no more than 0.026; under A54C U55G U58A, no more than 0.026; under C3A C12A A23G C80G, no more than 0.026.
With A14C G19U, the nonsense suppression was no more than 0.026.
Under C12A U20G C68G G69A A89U stands no more than 0.026; under G7C A9U U17G C77G G88C, no more than 0.026; under G15U G28C C34A G61A G73C U76C C77G, no more than 0.026.
For U8A G10C G61C G84C the value was no more than 0.026; for A54C G88C, no more than 0.026; for U22G A23C, no more than 0.026.
Under G19U U58G stands no more than 0.026; under C1U U21C G66U G69C, no more than 0.026.
In the case of G15A U58A C72A, the nonsense suppression was no more than 0.026.
For A54C U76G the value was no more than 0.026; for C34G G61C C83G, no more than 0.026; for G7A G26C G67A, no more than 0.026.
For A23G C64A, the nonsense suppression was no more than 0.026.
Under C5U A13G U16C C82A stands no more than 0.026.
For the variant G59U A60C, the nonsense suppression was no more than 0.026.
For A14U G59A U71C the value was no more than 0.026; for G6U C80A, no more than 0.026.
Under G19U U57C U63G C82U G88U stands no more than 0.026; under G25C C56U C81A, no more than 0.026; under A30G G88A, no more than 0.026.
Under A9G G61A C77U stands no more than 0.026.
Turning to G19C C34U U71C C82G, the nonsense suppression was no more than 0.026.
On to A62C C82G, for which the nonsense suppression is no more than 0.026.
For A9U G86U, the nonsense suppression was no more than 0.026.
For G25C U70A G85A, the nonsense suppression was no more than 0.026.
Under C3G A74C stands no more than 0.026; under C12U A31G G65A, no more than 0.026; under A60C U71A C72G, no more than 0.026.
For G28U G88C the value was no more than 0.026; for G25U G69C U70C, no more than 0.026.
C5U A9G A23C A24C: the nonsense suppression is no more than 0.026.
Under C5G G32C G65U stands no more than 0.026.
Turning to G65C C72U A89C, the nonsense suppression was no more than 0.026.
For C1A U4G C27U, the nonsense suppression is no more than 0.026.
For the variant U57A U76G A89C, the nonsense suppression was no more than 0.026.
As for G10C A62C U76G G88A, the nonsense suppression was no more than 0.026.
For G18A A24G G26A G84A the value was no more than 0.026; for U55A C72A, no more than 0.026.
For U21A A24U the value was 0.184; for U2A A31C A62C G78U A87U, no more than 0.026; for A14U A31G U57A, no more than 0.026.
As to C11U A31U, the nonsense suppression was no more than 0.026.
For C5G G25U G67A A89G the value was no more than 0.026; for C3U U17A U58C G88A, no more than 0.026; for U4G G19A G26U, no more than 0.026.
With A14U U16C U21G G59C G69A, the nonsense suppression was no more than 0.026.
Under C27A G59U C64G stands no more than 0.026.
For U17C G69C C83A the value was no more than 0.026.
Regarding A14G C64U G65C G69U U71G, the nonsense suppression is no more than 0.026.
Regarding G7A A9C G73A, the nonsense suppression was no more than 0.026.
Under A14C U63G C82U A89C stands no more than 0.026.
Take G7U C34U: the nonsense suppression was no more than 0.026.
For C11G C83A the value was no more than 0.026; for G32C U55A C83U, no more than 0.026.
For G25U G61U C68U the value was no more than 0.026; for G7U G66A G67A G85C, no more than 0.026; for A9G U35C, no more than 0.026.
Under C64G G67U stands no more than 0.026; under U2A U63C A74G, no more than 0.026; under G6C G32U, no more than 0.026.
On to U20A G28U C34U A60G G66U, for which the nonsense suppression was no more than 0.026.
Take C5G G7U C29A: the nonsense suppression was no more than 0.026.
Under U2A C29U stands 0.0437; under U20C A23U U70C, no more than 0.026; under G10C G15A U57C G69A, no more than 0.026.
Under U21G G66C stands no more than 0.026; under U16C G59C G69U C72G, no more than 0.026; under C1U U4G A87C, no more than 0.026.
For A23C A87C the value was no more than 0.026.
Regarding C34U G61U, the nonsense suppression is no more than 0.026.
For A54C U71C the value was 0.0406.
Under C75U C77G stands no more than 0.026; under U8C G78A, no more than 0.026.
Under C1G G6C G69A stands no more than 0.026.
Take G7C U57A: the nonsense suppression was no more than 0.026.
